Experimental data from PubChem BioAssay AID1030 (National Center for Advancing Translational Sciences (NCATS), 2008).
Screen size: about 220,000 compounds; about 16,000 (7.3%) were called active. The inconclusive results got no clear call from the source; some entries with a clear call stand among them for comparison. The call rests on the fitted dose curve; in most records, active means well fitted inhibition curve with a large enough effect (not every such curve was filed as active); inconclusive means small, poorly fitted or top-dose-only effect, or another doubt; inactive means no such curve, though single readings can be large or run the other way. A potency beside an inconclusive call is a rough fit, not a confirmed value.

Target: Aldehyde dehydrogenase 1A1 (Homo sapiens) (UniProt P00352)
UniProt P00352, sequence (P00352 whole entry, looked up): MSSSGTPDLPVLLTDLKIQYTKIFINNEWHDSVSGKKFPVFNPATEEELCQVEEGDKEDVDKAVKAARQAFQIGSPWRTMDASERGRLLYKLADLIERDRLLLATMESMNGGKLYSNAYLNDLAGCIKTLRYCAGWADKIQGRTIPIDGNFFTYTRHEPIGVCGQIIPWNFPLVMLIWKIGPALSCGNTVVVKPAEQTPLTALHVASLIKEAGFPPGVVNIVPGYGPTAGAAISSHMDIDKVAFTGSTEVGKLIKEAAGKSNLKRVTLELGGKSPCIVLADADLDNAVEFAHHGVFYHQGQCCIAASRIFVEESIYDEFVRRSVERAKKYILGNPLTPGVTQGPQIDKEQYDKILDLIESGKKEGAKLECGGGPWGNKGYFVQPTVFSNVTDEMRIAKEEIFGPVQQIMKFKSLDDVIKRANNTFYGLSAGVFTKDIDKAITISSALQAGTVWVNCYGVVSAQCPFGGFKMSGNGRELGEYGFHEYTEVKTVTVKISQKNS
Assay: qHTS Assay for Inhibitors of Aldehyde Dehydrogenase 1 (ALDH1A1)
Settings: Purified ALDH1A1, NADH fluorescence, propionaldehyde substrate; series mostly up to 75.3 µM
Potency means the concentration at half of the fitted maximal effect; tags describe the fitted curve by direction and shape.

Potency, active:
CCOC(=O)c1cc(CC)sc1/N=C/C1=C(O)CC(C)(C)CC1=O 11.2 µM
O=C(/C=C/c1ccco1)OCc1nnc(-c2ccc(Cl)cc2)o1 25.1 µM

Potency, inconclusive:
CC1(C)C2CCC1(CS(=O)(=O)Nc1ccc(S(=O)(=O)N3CCCCC3)cc1)C(=O)C2 (centres undefined) 28.2 µM [inhibitor, partial curve]
CCOc1ccc(C(=O)NC2CCN(C(=O)N3CCCC3)CC2)cc1 17.8 µM [inhibitor, partial curve]
O=C(c1cccs1)N1CCN(C(=O)C2CCCO2)CC1 (centres undefined) 39.8 µM [inhibitor, single point]
Cc1cccc(C(=O)Nc2cccc(C(=O)N/N=C/c3ccncc3)c2)c1 25.1 µM [inhibitor, partial curve]
O=C(c1ccccc1)N1CCCC(c2ccc(Cl)cc2)=N1 39.8 µM [inhibitor, single point]
CCn1nnnc1SCC(=O)Nc1nnc(C(C)C)s1 44.7 µM [inhibitor, single point]
c1ccc(-c2nc3nonc3c3nc4ccccc4n23)cc1 35.5 µM [inhibitor, single point]
COc1ccc(-c2cc3nc(C)c(CCC(=O)NC(C)CCc4ccco4)c(C)n3n2)c(OC)c1 (centres undefined) 35.5 µM [inhibitor, partial curve]
O=C(CCn1c(=O)sc2ccccc21)Nc1cccnc1 39.8 µM [inhibitor, single point]
O=C(N/N=C/c1ccccc1Br)c1ccc(CSc2cccc3cccnc23)cc1 39.8 µM [inhibitor, single point]
CCCN(CC1CC1)c1nc(N)c2c(N)nc(OC)cc2c1C#N 15.8 µM [inhibitor, partial curve]
Cc1cc(-c2ccccc2)[nH]c(=O)c1S(=O)(=O)c1ccc(Cl)cc1 15 µM [inhibitor, single point]
O=C1CN(C(=O)/C=C/c2ccco2)c2ccccc2N1 35.5 µM [inhibitor, single point]

Potency, inactive:
CCC(=O)N1CCN(c2ccc(Cl)cc2NC(=O)c2ccc(N3CCCC3)c([N+](=O)[O-])c2)CC1
CCn1nc(C)cc1-c1n[nH]c(=S)n1N
O=C(Nc1ccc(OCc2ccccc2)cc1)Nc1ccccc1C(=O)NCCCN1CCOCC1
O=C(NC(CO)C(O)c1ccc([N+](=O)[O-])cc1)C(Cl)Cl (centres undefined)
